Laboratory results published in PubChem BioAssay AID1508623 (National Center for Advancing Translational Sciences (NCATS), 2021).
The whole screen tested about 48,000 compounds, of which about 450 (0.94%) were called active. About 19% were inconclusive and are not listed. The call rests on the fitted dose curve; in most records, active means well fitted inhibition curve with a large enough effect; inconclusive means small, poorly fitted or top-dose-only effect; inactive means no such curve, though single readings can be large or run the other way. The list shows a part of the results.

Assay: Primary qHTS for Identification of Small Molecule Inhibitors of Huntingtin Promoter Activity; further: nearly all actives have a fitted effect of over 50% in size
Settings: HEK293 HTT promoter firefly luciferase reporter (activity 0% = vehicle and -100% = no light), 24 h; series mostly up to 57.5 µM; activity change, negative = inhibition: at the top concentration
How it was run: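 HEK293 luciferase promoter-reporter cells (2,500/well) plated 24 h, then compounds added at up to 57.5 uM final for 24 h at 37 °C. Firefly luminescence by Dual-Glo, normalized to vehicle (0%) and zero RLU (-100%).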
Potency means the concentration at half of the fitted maximal effect.

Activity change, negative = inhibition, inactive:
COC(=O)c1ccc(C(=O)OC)c(NC(=O)c2cc3nc(-c4ccc(C)cc4)cc(C(F)(F)F)n3n2)c1 -11.1% [at 11.5 µM]
COCCCNC(=O)c1sc2nc(C)c(C(=O)Nc3ccc(C)cc3C)c(-c3ccccc3Cl)c2c1N -22.5%
CCc1ccc2oc(-c3ccc(NC(=O)c4cc5ccccc5o4)cc3)nc2c1 13.1%
CCCNC(=O)CCCN1C(=O)CCn2nc(-c3cccn3C)cc21 0%
COc1ccc(C(=O)NCc2ccc3c(c2)CCN3C(=O)c2ccccc2)cc1 -1.62%
COCCNC(=O)c1nn(-c2ccc(C)cc2)c(=O)n(C)c1=O -7.87%
COc1ccc(C(CNC(=O)c2oc3cc(C)c(Cl)cc3c2C)N2CCCCC2)cc1 (stereo not drawn) -2.32%
COCCNC(=O)CCc1c(C)n(C)c2cc(-c3cc(OC)c(OC)c(OC)c3)nn2c1=O -0.479%
CC1CCN(S(=O)(=O)c2ccc3nc(NCc4ccccc4)ccc3c2)CC1 -1.92%
Cn1c(=O)c(=O)n(C)c2cc(C(=O)NCc3ccccc3Cl)ccc21 -13.9%
COc1cccc(Nc2nc3ccccc3c3nncn23)c1 -14.9%
Cn1c(SCc2cc(=O)c3cc(Cl)ccc3[nH]2)nnc1-c1ccccc1 -25.1%
O=C(NCc1ccccc1Cl)c1c2c(nc3ccccc13)C(=O)N(C1CCCCC1)C2 -13%
CCCCC(=O)Nc1ccc(OCc2cc(=O)n3c(C)csc3n2)cc1 5.72%
CCN(CC)c1ccc(C2C(C(=O)Nc3ccccc3C)=C(C)Nc3ncnn32)cc1 (stereo not drawn) -9.11%
COC(=O)CCCCCn1c(-c2ccccc2)cn2c3c(=O)n(C)c(=O)n(C)c3nc12 -2.41%
COc1ccc(OC)c(C(=O)CSc2ncc3c(n2)-c2ccccc2N(Cc2ccccc2C)S3(=O)=O)c1 -6.56%
Cc1ccn2c(=O)cc(CSc3nnc(C)s3)nc2c1 28.9%
Cc1cc2c(cc1NC(=O)c1ccccc1Cl)n(C)c(=O)c(=O)n2C 2.35%
CCN(Cc1ccccc1)Cc1c(O)ccc2c(=O)c(-c3ccc(Cl)cc3)c(C(F)(F)F)oc12 -25.5%
CCN(CC)CCCNC(=O)c1cn(CC(C)C)c(=O)c2c1c1ccccc1n2C 11.2%
COc1ccc(-c2nnc(SCC(=O)N3CCc4ccccc43)o2)cc1OC -7.43%
Cc1ccc2nc(-c3ccsc3)c(Nc3ccc(Cl)cc3)n2c1 -8.69%
Cc1cccc(-c2noc(-c3ccccc3OCC(=O)Nc3ccccc3[N+](=O)[O-])n2)c1 -8.01%
Cc1ccn2cc(CNC(=O)c3cccc(C(F)(F)F)c3)nc2c1 -21%
CC(=O)c1cccc(NC(=O)[C@H]2O[C@@H]3OC(C)(C)O[C@@H]3[C@H]3OC(C)(C)O[C@H]32)c1 -9.24%
CCOC(=O)c1ccc(NC(=O)C(C)Sc2nc(=O)cc(N)n2CCc2ccccc2)cc1 (stereo not drawn) -10.8%
COc1ccc(OCC(=O)N(Cc2sccc2C)C2CCS(=O)(=O)C2)cc1 (stereo not drawn) -5.52%
CCN(CC)C(=O)Cn1c(=O)n(Cc2ccc(C(=O)NCCCOC)cc2)c(=O)c2ccccc21 -10.7%
O=C(Nc1ccc(F)cc1F)c1cc(S(=O)(=O)N2CCCCC2)c[nH]1 -24.7%
Cc1ccc(C)c(N2C(=O)N(Cc3cccc(C(F)(F)F)c3)c3ccccc3S2(=O)=O)c1 -30.1%
Cc1ccc(C)c(NC(=O)N2CCN3CCCCC3C2)c1 (stereo not drawn) -10.8%
COc1ccc(C(=O)CCC(=O)Nc2ccc(F)cc2F)cc1 -18.1%
COc1ccc(F)cc1S(=O)(=O)Nc1ccc2c(c1)CCCN2C(=O)c1cccs1 -26.9%
CCOC(=O)CSc1nc2cc(OC)c(OC)cc2c2nc(-c3ccccc3)nn12 0.737%
COC(=O)c1sccc1S(=O)(=O)N(CC(=O)NCc1ccc(C)cc1)c1ccc(C)c(C)c1 -1.34%
CCOC(=O)C1=C(C)N=C2SCCC(=O)N2C1c1ccc(OCc2ccccc2)c(OC)c1 (stereo not drawn) -23.8%
CC(=O)c1c(C)oc2c1cc(NS(=O)(=O)c1c(C)cc(C)cc1C)c1ccccc12 -9.11%
NS(=O)(=O)c1ccc(NC(=O)COc2ccc(S(=O)(=O)NC3CCCCC3)cc2)cc1 -6.59%
COc1cccc(-n2nnc(-c3nc(-c4cccs4)no3)c2N)c1 106%
COc1ccc(NS(=O)(=O)c2ccc3[nH]c(=O)ccc3c2)cc1OC -9.33%
CCOc1ccc(S(=O)(=O)Nc2cccc(OC)c2)c2cccnc12 -18.2%
COc1ccc(S(=O)(=O)N(CC(=O)Nc2ccccc2Cl)Cc2ccccc2)cc1 -34.2%
Cc1ccc(CCNC(=O)CN2C(=O)COc3ccc(S(=O)(=O)N4CCCCCC4)cc32)cc1 -12.3%
COc1cc(OC)cc(C(=O)Nc2ccc3nc4n(c(=O)c3c2)CCCCC4)c1 69.2%
CNC(=O)c1cnc2sc(N3CCCCCC3)nn2c1=O 68.8%
CCOc1ccc(N(CC)C(=O)CCc2nc(-c3ccccc3F)no2)cc1 -17.7%
CCC(Sc1nnc(-c2ccc(OC)c(OC)c2)c(-c2ccc(OC)c(OC)c2)n1)C(=O)NC1CCCC1 (stereo not drawn) -4.52%
COc1cccc(NC(=O)Cn2nc(C)c3c(C)n(-c4ccccc4)nc3c2=O)c1 -25.2%
Cc1cccn2c(=O)cc(CSc3nnc(NC(=O)c4ccc(F)cc4)s3)nc12 -2.37%
O=C(NCCc1ccccc1)c1ccc(Cn2c(SCc3ccccc3)nc3cccnc32)cc1 25%
CCCOc1ccc(Oc2nc(NCC(C)C)nc(N(C)C)n2)nn1 -18.4%
CCc1ccc(NC(=O)C(Cc2ccccc2)NS(=O)(=O)c2ccc3c(c2)c(=O)n(C)c(=O)n3C)cc1 (stereo not drawn) -17.6%
Cc1nc(-n2nc(C)c(CCC(C)C)c2C)sc1C(=O)Nc1cccc(Cl)c1 -6.07%
Cc1cccc(C)c1NC(=O)c1sc(-n2nc(C)c(Cc3ccc4c(c3)OCO4)c2C)nc1C -8.17%
O=C1C(O)=C(O)C(=O)C(O)=C1O -19.1%
Clc1ccc(NCc2nc3ccccc3n2CCOc2ccccc2)cc1 -26.7%
COc1ccc(Cl)cc1NC(=O)Cn1c(=O)c2ccccc2n2nncc12 -9.23%
COc1cc(CNCCSc2nnnn2C)ccc1OCc1ccc(Cl)cc1Cl -19.2%
Cc1ccc(NC(=O)Cn2nc3c(cc2=O)CCCC3)cc1Cl -0.938%
Cc1nccn1CC1CCc2c(c3ccccc3n2C)C1=O (stereo not drawn)
CC(=O)c1ccc(NC(=O)CCc2c(C)nn(-c3ccc4nnc(C)n4n3)c2C)cc1 -4.87%
COc1ccc(NC(=O)C2CCC(CNS(=O)(=O)c3ccc(Br)s3)CC2)c(OC)c1 (stereo not drawn) -13.2%
CC(C)CC(C(=O)NCC1CCN(Cc2ccc(F)cc2)CC1)N1Cc2ccccc2C1=O (stereo not drawn) -4.39%
COc1cc(NC(=O)N2CCC(CN3CCCCCC3)CC2)cc(OC)c1OC -14.4%
O=C(CSc1nc(-c2ccccc2)nc2cc(=O)[nH]n12)Nc1ccccc1 -7.29%
Cc1ccccc1C(=O)N1c2ncnn2C2(CCCCC2)[C@@H]2CCCC[C@@H]21 -17.2%
Cc1ccccc1Cn1c(=O)n(CCC(=O)NCc2ccco2)c(=O)c2sccc21 -1.02%
COC(=O)C1=C(C)N(C(C)C)C(=O)C1(NC(=O)c1ccc(C(C)(C)C)cc1)C(F)(F)F (stereo not drawn) -11.6%
CC(C)Nc1nc2c(-c3cccc(Br)c3)nnn2c2ccccc12 11%
CCn1cc(C(=O)N2CCN(c3cc(Cl)ccc3C)CC2)c(=O)c2cc(S(=O)(=O)N3CCCCC3)ccc21 -26.3% [at 11.5 µM]
CC(=O)NC[C@H]1CN(c2ccc(N3CCOCC3)c(F)c2)C(=O)O1 3.92%
COc1ccccc1NC(=O)C1=C(C)Nc2nc(-c3ccco3)nn2C1c1ccccc1F (stereo not drawn) -19.8%
Cn1nnnc1SCCNCc1ccc(Cl)c(Cl)c1 -0.0551%
Cc1cccc(S(=O)(=O)c2cn(C)c3cc(N4CCN(c5ccccc5)CC4)c(F)cc3c2=O)c1 7.78%
Cc1ccc(Cn2c(C)c3cnn(CC(=O)NCCc4ccc(Cl)cc4)c(=O)c3c2C)cc1 -9.73%
COc1cccc(CCNC(=O)c2cnc3sc(N4CCOCC4)nn3c2=O)c1 -14.6%
COc1ccc(CNC(=O)c2ccc(NC(=O)N3CCSc4ncccc43)cc2)cc1 -13.6%
CCCNC(=O)CN1CCN(c2ccc(NC(=O)c3ccc(OC)cc3)cc2C(=O)O)CC1 -12.3%
Cc1ccccc1C(=O)N1CCC(C(=O)Nc2ccc(F)cc2F)CC1 -12%
Cc1ccc(S(=O)(=O)c2nc(-c3ccccc3F)oc2NCc2ccccc2)cc1 29.1%
Cc1nc(N2CCOCC2)c2c(C(=O)N3CCN(c4ccccc4)CC3)c(C)oc2n1 1.14%
Cc1c2oc3c(C)ccc(C(=O)N[C@@H]4C(=O)N[C@H](C(C)C)C(=O)N5CCC[C@H]5C(=O)N(C)CC(=O)N(C)[C@@H](C(C)C)C(=O)O[C@@H]4C)c3nc-2c(C(=O)N[C@@H]2C(=O)N[C@H](C(C)C)C(=O)N3CCC[C@H]3C(=O)N(C)CC(=O)N(C)[C@@H](C(C)C)C(=O)O[C@@H]2C)c(N)c1=O -38.4%
Cc1cc2c(cc3c(SCC(=O)Nc4ccc(Cl)cc4F)nncn32)o1 -6.47%
COCCCN1C(=O)c2oc3ccccc3c(=O)c2C12C(=O)N(C)c1ccccc12 (stereo not drawn) -12.9%
O=C(COc1ccccc1F)Nc1ccc(OCc2cc(=O)n3ccccc3n2)cc1 17.8%
COc1ccc(CC(=O)N2CCc3cc(OC)c(OC)cc3C2COc2ccc3c(C)cc(=O)oc3c2)cc1OC (stereo not drawn) -18.9%
CCOc1ccc(NC(=O)CCc2c(C)nc3c(-c4ccccc4)c(C)nn3c2C)cc1 -3.91%
COC(=O)c1ccc(Cn2c(SCc3ccc(F)cc3)nc3ccncc32)cc1 -5.06%
O=c1ccc2cc(S(=O)(=O)Nc3ccc(OC(F)(F)F)cc3)ccc2[nH]1 -27.1%
Cc1ccc(CNC(=O)CSC2=Nc3ccccc3N=C(c3ccc(F)cc3)C2)cc1 -17.5%
CC(C)CCn1c(=O)c2cccnc2n(CC(=O)Nc2ccccc2F)c1=O -12.7%

Potency, active:
O=C(NCCn1cc(SCc2ccc(F)cc2)c2ccccc21)c1cccs1 28.2 µM
